Test results taken from patent US20220401386A1, “USE OF NITRIC OXIDE SYNTHASE PATHWAY INHIBITOR IN PERPARATION OF MEDICINE” (ZHUJIANG HOSPITAL, SOUTHERN MEDICAL UNIVERSITY, priority 2019, published 2022).

Legend:
Nos2 gene = test: Expression level of Nos2 gene in intestinal (colon) tissues of MCAO mice, real-time PCR; assay type: in vivo; conditions: sampled 24 hours after stroke
Protocol: At different time points (3 hours, 6 hours, 12 hours, 24 hours, 3 days, and 7 days, where the start time of timing is the time at which the occlusion suture was removed) after the cerebral stroke, the colon tissues of mice were rapidly collected and cryopreserved at −80° C. for determining the relative expression level of Nos2 gene. The specific steps were as follows. […] The respective Gapdh expression levels were taken as internal references.

nitrate = test: Nitrate concentration in cecal mucus extract of MCAO mice, colorimetric kit; conditions: sampled 24 hours after stroke
Nox1 and Duox2 genes = test: Expression levels of Nox1 and Duox2 genes in intestinal tissues of MCAO mice, real-time PCR; assay type: in vivo; conditions: AG 100 mg/kg gavage once 1 hour after cerebral stroke, sampled 24 hours after stroke
Tjp1, Ocln, Cldn2 = test: Expression level of intestinal barrier-related genes in intestinal tissues of MCAO mice; assay type: in vivo; conditions: AG intervention before or after modeling, samples 24 hours after stroke, FIGS. 7A-7J
Protocol: (§1) At different time points (3 hours, 6 hours, 12 hours, 24 hours, 3 days, and 7 days, where the start time of timing is the time at which the occlusion suture was removed) after the cerebral stroke, the colon tissues of mice were rapidly collected and cryopreserved at −80° C. for determining the relative expression level of Nos2 gene. The specific steps were as follows.
(§2) (4) 2 μl of cDNA added in 20 μl volume was taken as a template (at a concentration of 50-100 ng/μl), and upstream and downstream primers as set forth in SEQ ID NOs: 1-2 and 23-28 were added at a final concentration of 250 nM to carry out SYBR Green (Takara Bio) real-time PCR, with a reaction system shown in Table 1:
(§3) (5) data were extracted with the ViiA 7 real-time PCR system (Applied Biosystems), and data analysis was performed by using the comparative Ct method. The respective Gapdh expression levels were taken as internal references.
(§4) The expression levels of Tjp1, Ocln, Cldn2, Tnf Il17, Ifng, Il1b, Cxcl2, Kc, and Il6 were detected according to the method of Example 4. Tjp1, Ocln, and Cldn2 were intestinal barrier-related genes; Tjp1 was a tight junction protein 1; Ocln was Occludin; Cldn2 was Claudin-2; Tnf was a tumor necrosis factor; Il17 was interleukin 17; Ifng interferon γ; Il1b was Interleukin 1β; Il6 was interleukin 6; and Kc and Cxcl2 were chemokines. Samples were taken 24 hours after cerebral stroke. The primer sequences for Tjp1, Ocln, Cldn2, Tnf Il17, Ifng, Il1b, Cxcl2, Kc, and Il6 were as set forth in SEQ ID NOs: 3-22.

[1] = tested on: Tnf, Il17, Ifng, Il1b, Cxcl2, Kc, Il6; test: Expression level of proinflammatory cytokines in intestinal (colon) tissues of MCAO mice; assay type: in vivo; conditions: AG intervention before or after modeling, colon tissues 24 hours after stroke, FIGS. 7A-7J
Protocol: as §1, §2, §3, §4

[2] = tested on: mouse middle cerebral artery occlusion (MCAO) model; test: Mouse modified neurological severity score (mNSS); assay type: in vivo, mice; conditions: AG interventions before and after modeling; 24 hours after cerebral stroke; FIG. 9
Protocol: This operation was performed on the MCAO group, Post-AG group and Pre-AG group 24 hours after cerebral stroke. Neurobehavioral testing was performed by two testers blinded to the experimental grouping. The mNSS ranges from 0 to 14, with 0 representing normal and 14 representing the highest neurological severity. The scoring system can comprehensively assess neurological functions, comprising motor, sensory, balance and reflex tests. (1) Motor test: the tail of the mouse was lifted to assess the degree of bending and twisting of the limbs (0-3 points); the walking posture on a flat surface was assessed (0-3 points). (2)Balance test: the mouse was placed on a beam. Neurological impairment was mainly assessed based on whether the mouse could keep balance on the beam, dangle their limbs from the beam, and move smoothly through the beam (0-6 points). (3) Sensory and reflex test: auricle reflex and corneal reflex were tested respectively (0-2 points).

[3] = tested on: mouse middle cerebral artery occlusion (MCAO) model; test: Nissl staining of frozen sections of brain tissues, neuronal loss; assay type: in vivo, mice; conditions: Post-AG group; brains harvested 24 hours after stroke; FIGS. 10A-10B
Protocol: (1) Brain harvesting: the mice in each group (SHAM group, MCAO group, and Post-AG group) were sacrificed to harvest their brains after evaluating mNSS 24 hours after stroke.
(2) Immobilization: after the mice were anesthetized, the thoracic cavity was opened to fully expose the heart, the right atrial appendage was cut open, and the heart was perfused with frozen normal saline for 10 min, and then with frozen 4% paraformaldehyde (PFA) for 10 min. Tissues were then immobilized in PFA for 24 h, and in 30% PFA sucrose for 48 h. After sufficient dehydration, the brain tissues completely sunk to the bottom, and were taken out.
(3) Embedding: the brain tissues were excised and placed in a frozen section embedding mold, embedded in conventional OCT, frozen in liquid nitrogen, and stored in a refrigerator at −80° C.
(4) Sectioning: the temperature of a freezing microtome was adjusted to −20° C. After reaching the temperature, the specimens were taken out, and the brain tissues was taken from 2.0 mm to 4.0 mm behind the bregma (comprising the entire thalamus tissue), and successively cut into coronal sections with a thickness of 5 μm. The sections were flattened with a fine brush, placed on a glass slide, and stored in a refrigerator at −20° C.
(5) Nissl staining: the brain sections were immersed in the Nissl staining solution for 5 min and washed twice with distilled water. […]

D-Lac, LBP, LPS = test: Levels of intestinal barrier markers in mouse serum, ELISA; assay type: in vivo, mice; conditions: AG interventions before or after modeling; FIGS. 11A-11E
Protocol: (§5) After assessment of mNSS, blood collecting was performed on the mice. Blood collection methods comprised orbital blood collection and postcaval vein blood collection. Before testing, the mouse serum samples were stored at −80° C.

IL-6, TNF-α = test: Levels of inflammatory factors in mouse serum, ELISA; assay type: in vivo, mice; conditions: AG intervention after modeling; FIGS. 11A-11E
Protocol: as §5

[4] = 0.01-1000 mg/kg gavage once 1 hour after stroke, compared to MCAO group

Cc1ccnc(N)c1 [2-amino-4-methylpyridine (AMP), 2-amino-4-methylpyridine]
expression level of Nos2 gene in the intestinal tissues (Nos2 gene; [4]): reduces
nitrate concentration in the cecal mucus extract (nitrate; [4]): reduces

[H]/N=C(\C)NCc1cccc(CN)c1 [1400W]
expression level of Nos2 gene in the intestinal tissues (Nos2 gene; [4]): reduces
nitrate concentration in the cecal mucus extract (nitrate; [4]): reduces

[H]/N=C(/C)NCCCC[C@H](N)C(=O)O [L-NIL]
expression level of Nos2 gene in the intestinal tissues (Nos2 gene; [4]): reduces
nitrate concentration in the cecal mucus extract (nitrate; [4]): reduces

N=C(N)NN [aminoguanidine (AG), aminoguanidine]
expression level of Nos2 gene in the intestinal tissues (Nos2 gene; AG 100 mg/kg gavage once 1 hour after cerebral stroke, FIG. 5A): significantly reduces
expression level of Nox1 gene in the intestinal tissues (Nox1 and Duox2 genes; FIG. 5B): significantly reduces
expression level of Duox2 gene in the intestinal tissues (Nox1 and Duox2 genes; FIG. 5C): significantly reduces
expression level of Cldn2 gene (Tjp1, Ocln, Cldn2): significantly decreases
expression level of Ocln gene (Tjp1, Ocln, Cldn2): significantly increase
expression level of Tjp1 gene (Tjp1, Ocln, Cldn2): significantly increase
expression level of Cxcl2 [1]: significantly decrease
expression level of Ifng [1]: significantly decrease
expression level of Il1b [1]: significantly decrease
expression level of Il6 [1]: significantly decrease
expression level of Il17 [1]: significantly decrease
expression level of Kc [1]: significantly decrease
expression level of Tnf [1]: significantly decrease
neurological deficit (mNSS) [2]: significantly improved
neuronal loss in the hippocampus regions (Nissl staining) [3]: significantly reduce
level of D-Lac in the mouse serum (D-Lac, LBP, LPS): significantly reduce
level of LBP in the mouse serum (D-Lac, LBP, LPS): significantly reduce
level of LPS in the mouse serum (D-Lac, LBP, LPS): significantly reduce
level of IL-6 in the mouse serum (IL-6, TNF-α): significantly reduce
level of TNF-α in the mouse serum (IL-6, TNF-α): significantly reduce
nitrate concentration in the cecal mucus extract (nitrate; AG 100 mg/kg gavage once 1 hour after cerebral stroke, FIG. 6): significantly reduces
